# According to paper PMC6919601, “Identification of Plasmodium dipeptidyl aminopeptidase allosteric inhibitors by high throughput screening” (PLoS ONE, 2019):
# Screen size: about 110,000 compounds; about 230 (0.21%) showed an effect of 50% or more. Some of the results follow.
# Biological target: DPAP1 (Plasmodium falciparum, UniProt Q8IIJ9)
# Test: primary screen, percent inhibition; read by cleavage of a fluorogenic dipeptide substrate; higher = more effect of the substance
# Design: species or system P. falciparum D10 trophozoite lysates; single well
# 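Also: 30 min substrate incubation versus DMSO and 10 µM JCP410 controls.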
# Chain of DPAP1 (Q8IIJ9 whole entry, looked up): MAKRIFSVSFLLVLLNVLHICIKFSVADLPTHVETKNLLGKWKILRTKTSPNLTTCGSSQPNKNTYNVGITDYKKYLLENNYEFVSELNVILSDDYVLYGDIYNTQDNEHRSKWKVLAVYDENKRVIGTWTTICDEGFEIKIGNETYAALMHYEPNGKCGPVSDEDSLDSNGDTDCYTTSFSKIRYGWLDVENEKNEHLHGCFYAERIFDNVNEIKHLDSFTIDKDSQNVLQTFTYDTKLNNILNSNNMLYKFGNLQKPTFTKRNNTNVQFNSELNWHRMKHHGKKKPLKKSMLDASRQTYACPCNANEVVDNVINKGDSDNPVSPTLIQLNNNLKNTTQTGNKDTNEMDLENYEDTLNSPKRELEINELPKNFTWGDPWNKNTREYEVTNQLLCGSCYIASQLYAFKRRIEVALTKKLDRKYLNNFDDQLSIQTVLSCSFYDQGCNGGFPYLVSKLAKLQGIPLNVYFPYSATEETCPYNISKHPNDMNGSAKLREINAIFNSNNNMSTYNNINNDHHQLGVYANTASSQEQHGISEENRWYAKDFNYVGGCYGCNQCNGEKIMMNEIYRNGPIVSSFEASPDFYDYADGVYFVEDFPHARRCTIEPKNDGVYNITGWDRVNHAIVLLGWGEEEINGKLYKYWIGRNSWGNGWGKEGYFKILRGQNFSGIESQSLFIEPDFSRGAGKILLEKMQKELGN
row,Compound,% Inhibition @ 10 uM [%]
1,CCOc1ccc2c(=O)c(Oc3cc(C)cc(C)c3)coc2c1,9.77
2,CCSc1cc(N2CCN(C)CC2)nc(-c2ccc(OC)cc2)n1,0.161
3,CCOC(=O)c1cnc(SC)nc1NC(=O)CSCc1csc2c1CCCC2,9.97
4,COc1cccc(OC)c1C(=O)Nc1cccnc1,5.66
5,O=C(CC(c1ccc(F)cc1)N1Cc2ccccc2C1=O)N1CCc2ccccc2C1 (stereo not shown),-9.28
6,O=C(O)C1C2CC3CC(C2)CC1(n1ncc(N2CCC4(CC2)OCCO4)c(Cl)c1=O)C3 (stereo not shown),-0.522
7,CCOC(=O)c1cnc(Nc2nc(C)c3ccc(C)cc3n2)nc1C,25.6
8,COc1ccccc1/C=C(\C#N)c1nc(-c2ccccc2)cs1,4.26
9,Cc1cccc(N2C(=O)C(Cl)=C(N(C)c3ccccc3)C2=O)c1,-3.46
10,CNC(=O)c1cc2c(=O)n3ccccc3nc2n(CC2CCCO2)c1=N (stereo not shown),-1.47
11,CCN1CCN(CCCNC(=O)c2[nH]c3ccccc3c2Sc2ccc(Cl)cc2)CC1,-4.26
12,CN(CC(=O)Nc1c(F)cccc1F)S(=O)(=O)c1ccc(Br)cc1,2.79
13,COc1ccccc1OCC(=O)N(Cc1ccc(N(C)C)cc1)C1CCS(=O)(=O)C1 (stereo not shown),4
14,Cn1cnc(S(=O)(=O)Nc2nnc(S)s2)c1,95.5
15,O=C(O)c1cccn1Cc1ccccc1Cl,4.61
16,O=C(Cn1ncn2cccc2c1=O)NCc1cccnc1,1.91
17,C#CCOC(=O)c1ccccc1C(=O)N(c1ccccc1)c1ccccc1,-2.62
18,O=C(CSCc1ccccc1Cl)N1CCN(c2ccccn2)CC1,0.514
19,c1ccc(CC23CC4CN(CCN(C4)C2)C3)cc1,1.57
20,Cc1ccc(-c2cc(C(=O)Nc3ccc(S(N)(=O)=O)cc3)c3ccccc3n2)o1,5.48
21,CC1(C)Cc2ccccc2-c2nnc(-c3cccs3)n21,-4.5
22,CCOc1ccc(NC(=O)c2ccc([N+](=O)[O-])o2)cc1,4.16
23,Cc1cc(C(=O)NCCCN2CCCC2=O)c2c(C)nn(-c3cccc(Cl)c3C)c2n1,-2.07
24,CCC[C@H](NC(=O)C1(NC(=O)c2ccc(OC(F)(F)F)cc2)CCCCC1)C(=O)c1nc2ccccc2o1,1.7
25,CC(C)(C)C1CCC(N2CCOCC2)CC1 (stereo not shown),1.29
26,COc1cccc(N2C(=O)CC(N3CCN(C4CC(=O)N(c5cccc(OC)c5)C4=O)CC3)C2=O)c1 (stereo not shown),3.8
27,Cn1ccnc1Sc1cccc2c1C(=O)c1ccccc1C2=O,-0.289
28,CS(=O)(=O)N(CC(=O)Nc1ccccc1F)c1cccc(F)c1,-0.622
